These are yes or no findings as the source states them, for the method shown. In cells and extracts the contact can be indirect. Some binding calls cover weakened binding; strength is not graded here. For some of these results: Tags and fused reporters may be left off the sequences shown.

Amino acid sequences for entries named in this document (tags omitted).
UniProt Q6PDM2: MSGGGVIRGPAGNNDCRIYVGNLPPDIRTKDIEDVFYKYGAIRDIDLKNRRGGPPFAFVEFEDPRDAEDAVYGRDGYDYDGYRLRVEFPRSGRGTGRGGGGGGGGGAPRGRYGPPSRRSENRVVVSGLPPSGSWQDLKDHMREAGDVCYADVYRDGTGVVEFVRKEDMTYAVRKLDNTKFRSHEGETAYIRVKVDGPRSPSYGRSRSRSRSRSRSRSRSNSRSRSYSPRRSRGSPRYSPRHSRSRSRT
UniProt O70551: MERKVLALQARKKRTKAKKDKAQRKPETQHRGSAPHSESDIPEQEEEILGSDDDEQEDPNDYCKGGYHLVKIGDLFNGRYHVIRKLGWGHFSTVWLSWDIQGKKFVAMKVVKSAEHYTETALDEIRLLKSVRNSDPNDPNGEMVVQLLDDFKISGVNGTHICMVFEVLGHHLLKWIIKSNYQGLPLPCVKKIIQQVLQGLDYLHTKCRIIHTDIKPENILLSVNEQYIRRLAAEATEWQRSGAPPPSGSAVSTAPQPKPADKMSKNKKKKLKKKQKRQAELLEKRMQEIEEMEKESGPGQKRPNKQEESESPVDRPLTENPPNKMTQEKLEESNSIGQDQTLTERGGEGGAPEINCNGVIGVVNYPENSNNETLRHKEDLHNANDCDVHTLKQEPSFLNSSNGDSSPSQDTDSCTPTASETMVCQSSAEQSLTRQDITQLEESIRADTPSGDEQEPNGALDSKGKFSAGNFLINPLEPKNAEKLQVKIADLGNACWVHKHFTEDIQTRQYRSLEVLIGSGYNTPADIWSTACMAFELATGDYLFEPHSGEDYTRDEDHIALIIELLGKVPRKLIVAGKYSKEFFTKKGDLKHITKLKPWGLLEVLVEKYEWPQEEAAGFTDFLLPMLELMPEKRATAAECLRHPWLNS

In experiment [1] the target is T1, Nuclear export factor 1 (NXF1), endogenous (mouse (endogenous in P19)) (UniProt Q99JX7).
T1 sequence: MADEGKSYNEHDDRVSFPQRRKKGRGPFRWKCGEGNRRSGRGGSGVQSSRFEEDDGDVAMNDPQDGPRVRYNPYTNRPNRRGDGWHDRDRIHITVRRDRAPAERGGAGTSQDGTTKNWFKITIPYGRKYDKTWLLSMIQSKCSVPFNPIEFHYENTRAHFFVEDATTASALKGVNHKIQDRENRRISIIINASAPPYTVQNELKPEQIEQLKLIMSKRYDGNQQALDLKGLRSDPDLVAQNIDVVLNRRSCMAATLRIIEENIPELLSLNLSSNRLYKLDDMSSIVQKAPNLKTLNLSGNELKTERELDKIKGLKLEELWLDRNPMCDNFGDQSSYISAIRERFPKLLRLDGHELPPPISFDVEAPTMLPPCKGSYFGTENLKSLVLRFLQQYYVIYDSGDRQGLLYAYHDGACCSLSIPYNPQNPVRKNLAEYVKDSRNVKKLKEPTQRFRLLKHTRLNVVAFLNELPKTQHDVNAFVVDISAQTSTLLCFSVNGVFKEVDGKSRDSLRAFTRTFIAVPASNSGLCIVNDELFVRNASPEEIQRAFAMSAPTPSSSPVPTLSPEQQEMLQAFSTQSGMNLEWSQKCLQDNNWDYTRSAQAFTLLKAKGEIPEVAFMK
Put plainly: co-IP; time course with different incubation times of RNase A, after 40 min of digestion (Supplemental Fig. S2F).

Experiment [2] has as its target T1, Nuclear export factor 1 (NXF1), endogenous (mouse (endogenous in P19)). Kind of experiment: co-IP; time course with different incubation times of RNase A, time points before 40 min (Supplemental Fig. S2F).
Experiment [3] has the same target. Kind of experiment: co-IP; semiquantitative forward (anti-GFP) and reverse (anti-NXF1) co-IPs from P19 BAC cell lines, without RNase A.
The target is the same in experiment [4]. Kind of experiment: co-IP; semiquantitative forward (anti-GFP) and reverse (anti-NXF1) co-IPs from P19 BAC cell lines, after RNase A treatment.
Experiment [5] deals with GFP-tagged SRSF1 (mouse) (UniProt Q6PDM2). Put plainly: co-IP; time course with different incubation times of RNase A, after 40 min of digestion (Supplemental Fig. S2F).
Experiment [6] shares this target. Put plainly: co-IP; time course with different incubation times of RNase A, time points before 40 min (Supplemental Fig. S2F).
For a further experiment, the target named is T2, NXF1-GFP (mouse) (UniProt Q99JX7).
T2 sequence: T1 sequence
Put plainly: co-IP; NXF1-GFP precipitated with anti-GFP, with or without RNase A (long); blots with phosphorylation-dependent mAb104 and phosphorylation-independent SR protein-specific antibodies.

As for “GFP-tagged SRSF1 (from UniProt Q6PDM2 1-248)”, the binding entry in experiment [1] is “no binding (condition: after 40 min of RNase A digestion)”; in experiment [2] it was “binds”; in experiment [3], “binds”; in experiment [4], “binds”.

As for “SR protein kinase 1 (SRPK1), endogenous (from UniProt O70551 1-648) (enzyme)”, the binding entry in the experiment with GFP-tagged SRSF1 (mouse) [5] and in the experiment with GFP-tagged SRSF1 (mouse) [6] was “binds” each time.

B1: GFP-tagged SRSF4 (protein, UniProt Q8VE97 1-489)
chain: MPRVYIGRLSYQARERDVERFFKGYGKILEVDLKNGYGFVEFDDLRDADDAVYELNGKDLCGERVIVEHARGPRRDGSYGSGRSGYGYRRSGRDKYGPPTRTEYRLIVENLSSRCSWQDLKDYMRQAGEVTYADAHKGRKNEGVIEFVSYSDMKRALEKLDGTEVNGRKIRLVEDKPGSRRRRSYSRSRSHSRSRSRSRHSRKSRSRSGSSKSSHSKSRSRSRSGSHSRSKSRSRSQSRSRSKKEKSRSPSKDNKSRSRSRSPDKSRSKSKDHAEDKLQNNDSAGKAKSHSPSRHDSKSRSRSQERRAEEERRRSVSRARSQEKSRSQEKSLLKSRSRSRSRSRSRSKDKRKGRKRSRDESRSRSRSKSERSRKHSSKRDSKVSSSSSSSKKKKDTDHSRSPSRSVSKEREHAKAESGQRGSRAEGESEAPNPEPRARSRSTSKSKPNVPAESRSRSKSASKTRSRSKSPSRSASRSPSRSRSRSHSRS
Take B1: the binding entry in experiment [3] and in experiment [4] was “binds” in each case.

B2: GFP-tagged SRSF5 (protein, UniProt O35326 1-269)
chain: MSGCRVFIGRLNPAAREKDVERFFKGYGRIRDIDLKRGFGFVEFEDPRDADDAVYELDGKELCSERVTIEHARARSRGGRGRGRYSDRFSSRRPRNDRRNAPPVRTENRLIVENLSSRVSWQDLKDFMRQAGEVTFADAHRPKLNEGVVEFASYGDLKNAIEKLSGKEINGRKIKLIEGSKRHRSRSRSRSRTRSSSRSRSRSRSRRSKSYSRSRSRSRSRSKSRSGSRSPVPEKSQKRGSSSRSKSPASVDRQRSRSRSRSRSVDSGN
Consider B2, for which the binding entry in experiment [3] and in experiment [4] was “binds” in each case.

B3: GFP-tagged SRSF7 (protein, UniProt Q8BL97 1-267)
chain: MRSSARGRPLQAATAFFLSLFFFLRRFERGFWLWGGDSETKVYVGNLGTGAGKGELERAFSYYGPLRTVWIARNPPGFAFVEFEDPRDAEDAVRGLDGKVICGSRVRVELSTGMPRRSRFDRPPARRPFDPNDRCYECGEKGHYAYDCHRYSRRRRSRSRSRSHSRSRGRRYSRSRSRSRGRRSRSASPRRSRSVSLRRSRSASLRRSRSGSIIGSRYFQSRSRSRSRSRSISRPRSSRSKSRSPSPKRSRSPSGSPHRSASPERMD
B3: the binding entry in experiment [3] and in experiment [4] was “binds” in each case.

B4: SRSF7, endogenous (protein, UniProt Q8BL97 1-267)
chain: B3 chain
With B4, the binding result in the experiment with NXF1-GFP (mouse) is recorded as “binds”.

B5: SRSF3, endogenous (protein, UniProt P84104 1-164)
chain: MHRDSCPLDCKVYVGNLGNNGNKTELERAFGYYGPLRSVWVARNPPGFAFVEFEDPRDAADAVRELDGRTLCGCRVRVELSNGEKRSRNRGPPPSWGRRPRDDYRRRSPPPRRRSPRRRSFSRSRSRSLSRDRRRERSLSRERNHKPSRSFSRSRSRSRSNERK
On to B5, for which, in the experiment with NXF1-GFP (mouse), the binding result was “binds”.

B6: GFP-tagged SRSF3 (protein, UniProt P84104 1-164)
chain: B5 chain
In the case of B6, the binding result in experiment [3] and in experiment [4] was “binds” each time.

Values taken from publication PMC4782049.
